In PubChem BioAssay AID743279 (National Center for Advancing Translational Sciences (NCATS), 2014):
Hit rate of the full screen: of about 360,000 compounds, about 17,000 (4.7%) were called active. This list was built around the results that the source calls inconclusive (neither active nor inactive); the mix of calls is not that of the screen. No stated cut-off is given here; in the data, active means activity change below about -50%; inconclusive means mostly about -30% to -49%; inactive means weaker than that.

Experiment: qHTS for Inhibitors of Inflammasome Signaling: IL-1-beta AlphaLISA Primary Screen
Conditions: THP-1 LPS/ATP IL-1B secretion, 16 h; at 57.5 µM, active compounds read low
Method in brief: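 THP-1 cells pretreated 1 hr with compounds (up to 57.5 uM final), then stimulated with LPS (250 ng/mL final) plus ATP (1.25 mM final); secreted IL-1B measured by AlphaLISA after 16 hr, decreased signal indicating inhibition.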
On the % scale 0 is the no-effect control and ±100 the full control effect.

Activity change, inconclusive:
CC1=C(C(=O)OCc2ccccc2)C(c2ccc(Cl)cc2)NC(=O)N1C (centres undefined) -35.1%, CC1(CCc2ccccc2)NC(=O)N(CC(=O)N2CCc3ccccc32)C1=O (centres undefined) -30.3%, CCC(=O)c1cc(F)c(N2CCN(S(=O)(=O)c3ccccc3)CC2)cc1C -31.3%, Cn1cc(C(=O)C(=O)NCCc2ccccc2)c2ccccc21 -37.8%, Cc1ccc2nc(-c3ccco3)c(Cc3cccc(F)c3)n2c1 -30.1%, CC[C@@]12C(=O)N(c3ccc(C)cc3)C(=O)N1[C@H](c1ccc(Br)cc1)[C@@H]1C(=O)N(C(C)(C)C)C(=O)[C@@H]12 -35.5%, Nc1cccc(C(=O)Nc2cccc3ncccc23)c1 -30.8%, CC(C)(C)c1ccc(C(=O)Nc2cccc(S(=O)(=O)NC3=NCCC3)c2)cc1 -49.4%, COc1ccc(NCc2ccsc2)cc1 -36.6%, CSc1ccc(CN2CCC(n3nccc3NC(=O)CCCc3ccccc3)CC2)cc1 -49.4%, COC(=O)[C@@]1(Cc2ccc(F)cc2)[C@H]2c3cc(C(=O)N4CCCC4)n(CCSCCO)c3C[C@H]2CN1C(=O)c1ccccc1 -38.9%, COc1ccc(C2Nc3ccccc3C(=O)N2c2ccc(C)cc2)cc1Cn1nnc2ccccc21 (centres undefined) -45.3%, O=C(CSc1nnc(-c2cccnc2)o1)Nc1ccc(F)cc1 -32.6%, Cc1ccc(S(=O)(=O)N2CCOCC2)cc1NC(=O)CSc1nc2ccccc2c(=O)n1Cc1ccccc1 -31.6%, COc1ccccc1C(=O)N(Cc1ccccc1)c1ccc(C)cc1 -35.6%, CC(=O)n1cc([C@@H]2C=C(C(=O)N3CCN(Cc4ccccc4)CC3)O[C@H](OCc3ccc(CO)cc3)C2)c2ccccc21 -34.3%, CCOc1ccc(/C=C/C(=O)N(CC)CC(=O)Nc2c(F)cccc2F)cc1OC -34%, OC(CN1C2=NCCCN2c2ccccc21)c1ccc(Br)cc1 (centres undefined) -41.2%, COc1cc2oc(-c3ccc(O)cc3)cc(=O)c2c(OC)c1O -31.4%, O=C(CC1Sc2ccccc2NC1=O)NNc1ccc(Cl)c(Cl)c1 (centres undefined) -38.8%, CCc1c(C#N)c(SCCC(=O)Nc2ccc(OC)cc2)nc2c1C(=O)CC(C)(C)C2 -34.5%, COC(=O)[C@]12CCCCC=C1N(CCc1ccc(OC)c(OC)c1)C(=O)[C@H](CC(=O)N1CCSCC1)C2 -41.7%, COc1ccc(CCC(=O)N2CCN(c3ccc([N+](=O)[O-])cc3)CC2)cc1OC -40.5%, Cc1cc(C(=O)N/N=C/c2ccc(O)c([N+](=O)[O-])c2)c(C)n1-c1ccc(F)cc1 -31.6%, CCN(CC)C(=O)C1=C(C)N(Cc2ccc(C(C)(C)C)cc2)C(=O)C(CC(=O)NC(c2ccccc2)c2ccccc2)C1 (centres undefined) -41.8%, Cc1cccc(NC(=O)c2cc(S(=O)(=O)N(C)c3ccc(F)cc3)ccc2Cl)n1 -31.9%, CC(Oc1ccccc1)C(=O)NC1=NCCS1 (centres undefined) -37%, Cc1ccc(-c2cc(C(=O)N3CC(C)CC(C)C3)c3ccccc3n2)o1 (centres undefined) -37.5%, O=C(CCl)Nc1ccc(S(=O)(=O)Nc2nccs2)cc1 -35.8%, Cc1ccc(S(=O)(=O)N(C)CC(=O)N2CCN(Cc3ccc4c(c3)OCO4)CC2)cc1 -36.6%, COc1cc(CNCc2ccccn2)ccc1OCc1c(Cl)cccc1Cl -36.1%, CC(=O)c1sc(NC(=O)CCS(=O)(=O)c2ccc(Cl)cc2)nc1C -33.4%, COc1ccc(OCCCC(=O)Nc2cccc([N+](=O)[O-])c2)cc1 -37.7%, O=C(N/N=C/c1cn(Cc2ccccc2)c2ccccc12)c1cc(O)cc(O)c1 -35.8%, COC(=O)c1cnc(Nc2nc(C(N)Cc3ccccc3)cs2)nc1C(F)(F)F (centres undefined) -32.6%, COc1ccc(NC2=CC(=S)NC(C)(C)C2)cc1 -33.5%, O=C(Nc1ccc(-c2noc(-c3cccs3)n2)cc1)c1cccnc1 -32.2%, CCOC(=O)C1CCN(Cc2cc(C(C)(C)C)c(O)c(C(C)(C)C)c2)CC1 -35.2%, CC(=O)c1ccc(NC(=O)c2ccc(CSc3ccccc3)o2)cc1 -40.9%, Cc1oc2cc3oc(=O)c(CCC(=O)NCCN4CCOCC4)c(C)c3cc2c1C -33.6%, CC(=O)N(CCC(Cc1ccccc1)c1ccc2c(c1)OCO2)Cc1ccc(Cl)cc1 (centres undefined) -42.6%, CC(=O)NC(c1ccccc1)c1nc(-c2cc(F)cc(F)c2)cs1 (centres undefined) -30.4%, CC(=O)N1CCN(C(=O)c2cc(-c3ccc(Cl)s3)nc3ccccc23)CC1 -41%

Activity change, active:
O=C(c1nc2ccc(Cl)cn2c1CNCC[C@@H]1C[C@@H]2C=C[C@H]1C2)N1CCCCCCC1 -72.1%, COC(=O)c1ccc2[nH]c3cccc(/C(=C/c4ccccc4)c4ccccc4)c3c2c1 -58.1%, CCC(C)(C)n1nnnc1CN(Cc1cc2cc(OC)ccc2[nH]c1=O)C1CCCC1 -53.3%, Cc1ccc(NC(=O)C(C)c2ccc([N+](=O)[O-])cc2)cc1Cl (centres undefined) -104%, C=CCC[C@@H](Cc1ccc(F)cc1)C(=O)OC[C@H](Cc1c[nH]c2ccccc12)NC(=O)[C@H](CC=C)CC(=O)NCCO -57.2%, C[N+](C)(C)CCC(=O)N1C/C(=C/c2ccccc2)C(=O)/C(=C\c2ccccc2)C1 -98.5%, Cc1cccc2cc(CN(Cc3nnnn3Cc3ccccc3)C3CCCC3)c(=O)[nH]c12 -64.3%, COc1ccc(C2c3ccc4ccccc4c3Oc3ncn(CCCN(C)C)c(=N)c32)cc1 (centres undefined) -95.4%, CCCCCc1ccc(OCCCC[n+]2ccc(C)cc2)c(CCCCC)c1 -99.8%, Cn1cc([N+](=O)[O-])c(C(=O)Nc2nc(-c3ccc(Cl)cc3)cs2)n1 -120%, C=CCN=c1scc(-c2ccco2)n1/N=C/c1ccc(O)c(O)c1O -50.9%, CC1(C)Cc2c(c(N3CCCC3)nc3sc4c(N5CCN(CCO)CC5)ncnc4c23)CO1 -61.1%, CCOC(=O)c1c(-c2ccccc2)[nH]c2ccc(O)cc12 -54.9%, C/C(=N\NC(=O)c1cc2ccccc2cc1O)c1cccs1 -50.4%, CN1CCN(c2ccc(NC(=O)c3ccc(-c4ccc(Cl)cc4)o3)cc2)CC1 -99.1%, CCCCOCCCNC(=O)C[C@@H]1C[C@@]2(C(=O)OC)CCCCC=C2N(Cc2ccc(Cl)cc2Cl)C1=O -58.5%, Cc1cccc(Nc2nc(-c3ccccc3)c(C(=O)Nc3cccnc3)s2)c1 -60.9%, O=C(Cn1ncc(Cl)c(Cl)c1=O)NC1CCCCC1 -99.8%

Activity change, inactive:
COc1cc(/C=N\NC(C)=O)ccc1OC/C=C/c1ccccc1 -1.13%, O=C(CSc1nnc(CNC(=O)c2ccccc2)o1)NCc1ccco1 -3.13%, COc1ccc(C2(O)CN(c3ccccc3)C3=[N+]2CCS3)cc1OC (centres undefined) 7.23%, NNc1nc(-c2ccccc2Cl)nc2ccccc12 -2.39%, CCCN1CCN(S(=O)(=O)c2ccc(-n3cnnn3)cc2)CC1 -2.37%, CC(NC(=O)CNC(=O)c1cccc(Cl)c1)c1ccccc1 (centres undefined) 1.82%, COc1ccc(/C=C2\N=C(C(C)(C)C)OC2=O)c(OC)c1 30.9%, O=c1cc(CN2CCN(Cc3ccccc3)CC2)c2ccc(O)c(O)c2o1 82.7%, COc1cccc(CNC(=O)CCCCCNC(=O)N2CCn3c2nc2ccccc23)c1 9.69%, CN1CCN(C(=O)c2cnn(-c3ccccc3)c2NC(=O)c2ccccc2Br)CC1 9.04%, CN(CC(=O)Nc1cccc2ccccc12)C(=O)c1ccc(F)cc1F 0%, Cc1csc(NC(=O)CSc2nnc(-c3ccoc3C)n2C(C)c2ccccc2)n1 (centres undefined) -17.7%, OCCSc1nc(-c2cccnc2)nc2ccccc12 -17.2%, COc1ccc(-c2noc(=O)n2Cc2ccccc2F)cc1 -30%, COc1ccccc1-c1csc(NC(=O)c2cc(-c3cccs3)nc3ccccc23)n1 -13.6%, COc1ccc(CNC(=O)C2Cc3c(-c4ccccc4)ccnc3O2)cc1OC (centres undefined) -11.9%, Cc1ccc(CC(=O)NCCC(=O)O)cc1 6.46%, O=C(COC(=O)c1ccc(Br)o1)Nc1cccc(S(=O)(=O)N2CCCCCC2)c1 41%, CC(NS(=O)(=O)c1ccc(OCC(=O)Nc2cccc([N+](=O)[O-])c2)cc1)c1ccccc1 (centres undefined) -4.19%, COc1ccc(C(CC(=O)O)NC(=O)COc2cc(C)ccc2C)cc1OC (centres undefined) -0.249%, Cc1ccc(CNC(=O)C2CCN(S(=O)(=O)N3CCC(C)CC3)CC2)cc1 -1.01%, COc1ccccc1C(=O)NNC(=O)C1CCCO1 (centres undefined) 29.5%, Cc1cccc(N(CC(=O)N/N=C/c2cc([N+](=O)[O-])ccc2Cl)S(C)(=O)=O)c1C -13.4%
